Test results: paper PMC4207660, “Identification and Characterization of Hundreds of Potent and Selective Inhibitors of Trypanosoma brucei Growth from a Kinase-Targeted Library Screening Campaign” (PLoS Neglected Tropical Diseases, 2014)
Converted amounts (≈) assume the structure as drawn.

Key:
[1] = system: T. brucei brucei parasites (Lister 427 strain); assay: Dose response growth inhibition assay (resazurin, 72 h); format: cell-based; details: Trypanosoma brucei; T. b. brucei growth inhibition; read-out: Tbb pEC50 (converted)
Protocol: Greiner sterile black clear bottom 384-well assay plates were pre-dispensing with 200 nL of compound in each well, from master plates at 1 mM (100% DMSO) containing selection from the GSK compound collection. Controls of 0% response (control 1, 200 nL of 100%DMSO) and 100% response (control 2, 200 nL of 1 mM pentamidine) were included in each assay plate in columns 6 and 18, respectively. Plates containing 200 nL of 100% DMSO were included randomly in the assay, to assess quality through all process. […] After this period, 10 µL of 200 µM resazurin solution in prewarmed HMI-9 were added to each well, and plates were allowed to incubate 2 hours more prior fluorescence reading in a Wallac EnVision Multilabel Plate Reader (Perkin-Elmer). Raw fluorescent data from the Envision plate reader were uploaded into GSK HTS database (ActivityBase). Activity of each well was normalized as a percentage of inhibition per-plate basis using the following equation: [drawing 1]
For dose-response experiments, serial compound dilutions of selected hits from the primary campaign were plotted against compound concentration. Dose response master plates were prepared by 3-fold dilutions (starting with 10 mM DMSO stock solutions), providing 11 concentrations. From these master plates, 200 nL per well was stamped in final assay plates, including the same controls describe in the primary single shot assay. […]

ChromlogD assay = assay: ChromlogD assay
Protocol: The Chromatographic Hydrophobicity Index (CHI)[22] values were measured using reversed phase HPLC column (Luna C18 (2), Phenomenex, UK) with a fast acetonitrile gradient at starting mobile phase of pH = 7.4. CHI values are derived directly from the gradient retention times by using a calibration line obtained for standard compounds. The CHI value approximates to the volume % organic concentration when the compound elutes. […] The average error of the assay is ±3 CHI unit or ±0.25 ChromlogD.

[2] = biological target: T1, Human Serum Albumin (HSA) (Homo sapiens, UniProt P02768); assay: Protein binding assay (HPLC stationary phase), HSA; format: in vitro ADME; details: Measured
T1 construct: purchased Chiral Technologies, France
Protocol: Chemically bonded Human Serum Albumin (HSA) and Alpha-1-acidglycoprotein HPLC stationary phases (Chiral Technologies, France) were used for measuring compounds' binding to plasma proteins, applying linear gradient elution up to 30% iso-propanol. The run time was 6 min, including the re-equilibration of the stationary phases with the 50 mM pH7.4 ammonium acetate buffer. The obtained gradient retention times were standardised using a calibration set of mixtures as described in the references. The average standard error of the assay depends on the binding strength and kinetics of the compounds.

[3] = CLND kinetic solubility assay; format: physicochemical; details: phosphate buffered saline, pH 7.4, aqueous buffer, kinetic from dmso stock; Measured; read-out: Aq Sol
Protocol: 5 µL of 10 mM DMSO stock solution was diluted to 100 µL with pH 7.4 phosphate buffered saline, equilibrated for 1 hour at room temperature, filtered through Millipore MultiscreenHTS-PCF filter plates (MSSL BPC). The filtrate was quantified by suitably calibrated flow injection Chemi-Luminescent Nitrogen Detection.

PFI (ChromlogD assay) | HSA % binding [2] [%] | solubility kinetic at 1 h [3] [µM] | SMILES | EC50 [1] [nM]
6.64 | 75.73 | 100 (≈ 33.3 µg/mL) | COc1cccc(Cc2nnc(-c3ncc4cccnc4c3O)[nH]2)c1 [NEU-0001189] | 398
6.27 | – | 33 (≈ 10.4 µg/mL) | NS(=O)(=O)c1ccc(Nc2ncc(-c3ccccc3)o2)cc1 [NEU-0001219] | 631
8.64 | – | 33 (≈ 11.3 µg/mL) | Nc1ncc(-c2cccnc2)c2scc(-c3ccc4cn[nH]c4c3)c12 [NEU-0001220] | –
